Molecular target: the molecule itself
Experiment: cryo-EM structure

B1: Mycobacterium tuberculosis ClpB, full-length (enzyme)
chain: not shown
stoichiometry N: 6

From PMC8209680 (Cell reports, 2021)
